The target of assay [1] is T1, IL-7Rα/IL-2Rγ on human T cells (human, UniProt P16871 21-459; P31785 23-369).
T1 sequence (looked up) 1: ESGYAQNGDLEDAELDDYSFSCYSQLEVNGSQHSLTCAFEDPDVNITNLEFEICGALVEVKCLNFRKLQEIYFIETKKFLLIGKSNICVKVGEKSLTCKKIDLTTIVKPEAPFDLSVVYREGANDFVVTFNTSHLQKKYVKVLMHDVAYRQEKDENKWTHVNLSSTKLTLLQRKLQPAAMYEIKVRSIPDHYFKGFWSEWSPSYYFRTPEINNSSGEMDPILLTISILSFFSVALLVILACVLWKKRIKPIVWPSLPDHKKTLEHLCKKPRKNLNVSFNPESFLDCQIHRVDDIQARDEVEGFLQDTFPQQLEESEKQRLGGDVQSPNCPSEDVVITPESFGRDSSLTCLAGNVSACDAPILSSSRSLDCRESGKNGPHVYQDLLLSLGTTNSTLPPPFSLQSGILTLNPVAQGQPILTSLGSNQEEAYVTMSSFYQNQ
T1 sequence (looked up) 2: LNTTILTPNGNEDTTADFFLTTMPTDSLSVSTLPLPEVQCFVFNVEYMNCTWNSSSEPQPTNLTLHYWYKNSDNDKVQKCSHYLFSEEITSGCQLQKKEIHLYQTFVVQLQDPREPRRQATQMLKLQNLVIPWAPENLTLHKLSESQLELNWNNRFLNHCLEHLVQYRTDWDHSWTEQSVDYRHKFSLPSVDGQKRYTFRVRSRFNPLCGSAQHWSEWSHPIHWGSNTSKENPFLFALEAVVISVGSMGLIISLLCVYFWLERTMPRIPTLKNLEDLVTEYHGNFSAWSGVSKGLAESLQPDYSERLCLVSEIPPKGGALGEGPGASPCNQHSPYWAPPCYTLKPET
The assay is described as follows: cell-based or functional assay.

The target of assay [2] is T2, Human IL7Ra-IL2Rγ-Fc heterodimer (human, biotin on the avi tag).
T2 construct: Extracellular domains of IL-7Ralpha and IL-2Rgamma fused to Fc knob and Fc hole; also called hu IL7Ra-IL2Rγ-Fc avi biotin; human IL7Ra-IL2Rg-Fc biotin
Kind of assay: SPR (Example 2.4), captured via anti-P329G, receptor-Fc 2.34-300 nM, 1:1 fit. How it is done: (§1) SPR experiments were performed on a Biacore 8 K with HBS-EP + 1 mg/ml BSA as running buffer. Anti-P329G Fc specific antibody (Roche internal) was directly immobilized by amine coupling on a C1 chip (Cytiva). The PD1-IL7 constructs were captured for 140 s at 5 nM. […] The dissociation phase was monitored for 800 s and triggered by switching from the sample solution to running buffer. The chip surface was regenerated after every cycle using two injections of 10 mM glycine pH 2 for 60 sec. Bulk refractive index differences were corrected for by subtracting the response obtained on the reference flow cell (containing immobilized anti P329G Fc specific IgG only). The affinity constants were derived from the kinetic rate constants by fitting to a 1:1 Langmuir binding using the Biacore evaluation software (Cytiva).
Four IL7 single variants, two IL7 double variants and IL7 wild-type were compared to four reference molecules with modified IL7 for binding to human IL7 receptor (Table 23). The affinity of the IL7 variants to the IL7 receptor was determined using the recombinant heterodimer of the extracellular domains of the IL7 receptor alpha chain and the common IL2 receptor gamma chain.

The target of assay [3] is T2, Human IL7Ra-IL2Rγ-Fc heterodimer. The assay is described as follows: SPR (Example 2.4), captured via anti-P329G, receptor-Fc 2.34-300 nM, 1:1 fit, single value. The protocol: as §1
Assay [4] has as its target T1, IL-7Rα/IL-2Rγ on human T cells. The assay is described as follows: cell-based or functional assay. The source holds these as a separate data set.

Read-outs that look alike come from different tables or passages of the source.

B1: Reference Molecule 8 (other)
light: DIVMTQSPDSLAVSLGERATINCKASESVDTSDNSFIHWYQQKPGQSPKLLIYRSSTLESGVPDRFSGSGSGTDFTLTISSLQAEDVAVYYCQQNYDVPWTFGQGTKVEIKRTVAAPSVFIFPPSDEQLKSGTASVVCLLNNFYPREAKVQWKVDNALQSGNSQESVTEQDSKDSTYSLSSTLTLSKADYEKHKVYACEVTHQGLSSPVTKSFNRGEC
heavy 1: EVQLLESGGGLVQPGGSLRLSCAASGFSFSSYTMSWVRQAPGKGLEWVATISGGGRDIYYPDSVKGRFTISRDNSKNTLYLQMNSLRAEDTAVYYCVLLTGRVYFALDSWGQGTLVTVSSASTKGPSVFPLAPSSKSTSGGTAALGCLVKDYFPEPVTVSWNSGALTSGVHTFPAVLQSSGLYSLSSVVTVPSSSLGTQTYICNVNHKPSNTKVDKKVEPKSCDKTHTCPPCPAPEAAGGPSVFLFPPKPKDTLMISRTPEVTCVVVDVSHEDPEVKFNWYVDGVEVHNAKTKPREEQYNSTYRVVSVLTVLHQDWLNGKEYKCKVSNKALGAPIEKTISKAKGQPREPQVCTLPPSRDELTKNQVSLSCAVKGFYPSDIAVEWESNGQPENNYKTTPPVLDSDGSFFLVSKLTVDKSRWQQGNVFSCSVMHEALHNHYTQKSLSLSPGK
heavy 2: EVQLLESGGGLVQPGGSLRLSCAASGFSFSSYTMSWVRQAPGKGLEWVATISGGGRDIYYPDSVKGRFTISRDNSKNTLYLQMNSLRAEDTAVYYCVLLTGRVYFALDSWGQGTLVTVSSASTKGPSVFPLAPSSKSTSGGTAALGCLVKDYFPEPVTVSWNSGALTSGVHTFPAVLQSSGLYSLSSVVTVPSSSLGTQTYICNVNHKPSNTKVDKKV[human IgG1 Fc with changes left out]GGGGSGGGGSGGGGSDCDIEGKDGKQYESVLMVSIDQLLDSMKEIGSNCLNNEFNFFKRHICDANKEGMFLFRAARKLRQFLKMNSTGDFDLHLLKVSEGTTILLNCTGQVKGRKPAALGEAQPTKSLEENKSLKEQKKLNDLCFLKRLLQEIKTCHNKILMGTKEH
notes: Format as m1; IL-7 with W142H; also called P1AF9650-004
As for B1, in assay [1], the “STAT5-P Area (PD1+)” value was 96.1 and the “STAT5-P Area (PD1 blocked)” value stood at 62.1. In addition, in assay [2], the Kd (as a rule, a measure of binding affinity in units of concentration) was found to be 1.46 nM; the off-rate constant (koff) (commonly the first-order rate constant of dissociation) was found to be 0.000441 s⁻¹; the kon (commonly the rate constant with which the complex forms) amounted to 303000 M⁻¹ s⁻¹.

B2: Reference Molecule 5 (other)
light: B1 light
heavy 1: B1 heavy 1
heavy 2: EVQLLESGGGLVQPGGSLRLSCAASGFSFSSYTMSWVRQAPGKGLEWVATISGGGRDIYYPDSVKGRFTISRDNSKNTLYLQMNSLRAEDTAVYYCVLLTGRVYFALDSWGQGTLVTVSSASTKGPSVFPLAPSSKSTSGGTAALGCLVKDYFPEPVTVSWNSGALTSGVHTFPAVLQSSGLYSLSSVVTVPSSSLGTQTYICNVNHKPSNTKVDKKV[human IgG1 Fc with changes left out]GGGGSGGGGSGGGGSDCDIEGKDGKQYESVLMVSIDQLLDSMKEIGSNCLNNEFNFFKRHICDANKEGMFLFRAARKLRQFLKMNSTGEFDLHLLKVSEGTTILLNCTGQVKGRKPAALGEAQPTKSLEENKSLKEQKKLNDLCFLKRLLQEIKTCWNKILMGTKEH
notes: Format as m1; also called P1AF9647-027
Turning to B2, in assay [1], the “STAT5-P Area (PD1+)” value is 113 and the “STAT5-P Area (PD1 blocked)” value came out at 81.6. In assay [3], this molecule gave an equilibrium dissociation constant (Kd) of 0.746 nM, a koff of 0.000277 s⁻¹ and an on-rate (kon) of 372000 M⁻¹ s⁻¹.

B3: Reference Molecule 1 (other)
light: DVVMTQSPLSLPVTLGQPASISCRSSQSLVHANTNTYLEWYQQRPGQSPRLLIYKVSNRFSGVPDRFSGSGSGTDFTLKISRVEAEDVGVYYCFQGTHVPNTFGQGTKLEIKRTVAAPSVFIFPPSDEQLKSGTASVVCLLNNFYPREAKVQWKVDNALQSGNSQESVTEQDSKDSTYSLSSTLTLSKADYEKHKVYACEVTHQGLSSPVTKSFNRGEC
heavy: QIQLVQSGSELKKPGASVKVSCKASGYTFTHYAMNWVRQAPGQGLEWMGWINTNTGEPTYAQGFTGRFVFSLDTSVSTAYLQISSLKAEDTAVYYCAREREPGMDNWGQGTLVTVSS[human IgG1 constant region with changes left out]GGGGSGGGGSGGGGSDCDIEGKDGKQYESVLMVSIDQLLDSMKEIGSNCLNNEFNFFKRHICDANKEGMFLFRAARKLRQFLKMNSTGEFDLHLLKVSEGTTILLNCTGQVKGRKPAALGEAQPTKSLEENKSLKEQKKLNDLCFLKRLLQEIKTCWNKILMGTKEH
Regarding B3, in assay [4], the “STAT5-P Area (PD1+)” value was 104 and the “STAT5-P Area (PD1 blocked)” value was 81.2.

B4: Reference Molecule 3 (other)
light: B3 light
heavy: QIQLVQSGSELKKPGASVKVSCKASGYTFTHYAMNWVRQAPGQGLEWMGWINTNTGEPTYAQGFTGRFVFSLDTSVSTAYLQISSLKAEDTAVYYCAREREPGMDNWGQGTLVTVSS[human IgG1 constant region with changes left out]GGGGSGGGGSGGGGSDCDIEGKDGKQYESVLMVSIDQLLDSMKEIGSNSLNNEFNFFKRHISDANKEGMFLFRAARKLRQFLKMNSTGDFDLHLLKVSEGTTILLNSTGQVKGRKPAALGEAQPTKSLEENKSLKEQKKLNDLSFLKRLLQEIKTCWNKILMGTKEH
As for B4, in assay [4], the “STAT5-P Area (PD1+)” value stood at 0.691 and the “STAT5-P Area (PD1 blocked)” value worked out at 0.751.

B5: Reference Molecule 4 (other)
light: B3 light
heavy: QIQLVQSGSELKKPGASVKVSCKASGYTFTHYAMNWVRQAPGQGLEWMGWINTNTGEPTYAQGFTGRFVFSLDTSVSTAYLQISSLKAEDTAVYYCAREREPGMDNWGQGTLVTVSS[human IgG1 constant region with changes left out]GGGGSGGGGSGGGGSDCDIEGKDGKQYESVLMVSIDQLLDSMKEIGSNCLNNEFNFFKRHICDANKEGMFLFRAARKLRQFLKMNSTGDFDLHLLKVSEGTTILLNCTGQVKGRKPAALGEAQPTKSLEENKSLKEQKKLNDLCFLKRLLQEIKTCHNKILMGTKEH
Regarding B5, in assay [4], the “STAT5-P Area (PD1+)” value worked out at 60.8 and the “STAT5-P Area (PD1 blocked)” value turned out to be 44.1.

The record behind these values is patent publication US20230192795A1 (Hoffmann-La Roche, published 2023).
